Data published in PMC4336329 (PLoS ONE, 2015).
About 14,000 (4.5%) of roughly 310,000 compounds showed an effect of 50% or more. The effect is printed as a negative number. The list shows a part of the results.

Molecular target: human ether-à-go-go-related gene (hERG) potassium channel (human, UniProt Q12809)
Assay: primary screen, population patch clamp on CHO cells stably expressing hERG
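Further: peak tail current of the secondary pulse compared with the same well before compound.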

Chain of human ether-à-go-go-related gene (hERG) potassium channel (Q12809 whole entry, looked up): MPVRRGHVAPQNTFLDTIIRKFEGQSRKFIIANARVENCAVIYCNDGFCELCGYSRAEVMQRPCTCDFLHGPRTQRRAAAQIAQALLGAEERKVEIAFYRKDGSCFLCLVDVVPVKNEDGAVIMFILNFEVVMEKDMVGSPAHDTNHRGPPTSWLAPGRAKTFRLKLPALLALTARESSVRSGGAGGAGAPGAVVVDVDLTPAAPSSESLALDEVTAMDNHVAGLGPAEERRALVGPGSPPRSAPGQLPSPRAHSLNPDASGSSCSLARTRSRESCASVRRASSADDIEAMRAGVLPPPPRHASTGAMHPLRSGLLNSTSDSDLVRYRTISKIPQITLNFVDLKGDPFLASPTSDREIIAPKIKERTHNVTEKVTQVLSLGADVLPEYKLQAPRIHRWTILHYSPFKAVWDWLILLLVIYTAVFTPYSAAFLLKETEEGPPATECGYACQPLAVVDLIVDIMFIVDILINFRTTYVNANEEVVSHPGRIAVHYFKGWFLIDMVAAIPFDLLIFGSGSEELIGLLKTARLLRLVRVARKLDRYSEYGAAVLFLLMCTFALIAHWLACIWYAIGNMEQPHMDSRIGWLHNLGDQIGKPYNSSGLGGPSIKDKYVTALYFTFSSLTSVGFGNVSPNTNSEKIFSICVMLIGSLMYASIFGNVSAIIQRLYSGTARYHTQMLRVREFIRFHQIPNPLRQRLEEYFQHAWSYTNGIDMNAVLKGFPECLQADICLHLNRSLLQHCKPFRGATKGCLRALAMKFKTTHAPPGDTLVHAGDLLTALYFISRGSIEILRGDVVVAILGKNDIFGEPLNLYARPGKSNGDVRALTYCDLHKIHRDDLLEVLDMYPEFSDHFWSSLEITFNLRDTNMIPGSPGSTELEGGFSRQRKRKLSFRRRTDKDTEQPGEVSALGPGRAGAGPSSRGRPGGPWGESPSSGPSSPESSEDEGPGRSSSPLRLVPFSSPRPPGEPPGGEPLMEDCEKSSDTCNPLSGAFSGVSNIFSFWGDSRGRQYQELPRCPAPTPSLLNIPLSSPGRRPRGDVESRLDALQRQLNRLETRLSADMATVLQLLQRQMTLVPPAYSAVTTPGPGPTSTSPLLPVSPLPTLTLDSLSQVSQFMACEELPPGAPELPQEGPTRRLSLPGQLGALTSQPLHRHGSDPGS

Row | SMILES | hERG current change (%, negative = inhibition) at 10uM
1 | COc1ccc(CN(C(=O)c2snc(C(N)=O)c2N)C(C(=O)NC2CCCC2)c2cc(OC)ccc2OC)cc1 (centres unmarked) | -3.67%
2 | COc1ccc(OC(=O)COc2ccccc2C)cc1 | 5.55%
3 | Cc1ccc(-c2nn(CCC#N)cc2C=C(C#N)C#N)cc1 | 7.08%
4 | CCN1C(=O)CSc2ccc(C(=O)NCc3ccc(OC)cc3)cc21 | -4.81%
5 | CCc1ccc(-c2nn(-c3ccccc3)cc2C2SCC(=O)N2Cc2ccco2)cc1 (centres unmarked) | 16.5%
6 | CCNS(=O)(=O)c1ccc(NC(=O)Cn2nc(C(F)(F)F)cc2C)cc1 | -0.324%
7 | CN1CCN(Cc2ccc(Sc3ccc(Cl)cc3)c([N+](=O)[O-])c2)CC1 | -80.4%
8 | CC(=O)Nc1c(C)cc(S(C)(=O)=O)cc1C | 14.5%
9 | COc1ccc(CNC(=O)C/C(C)=N/NC(=O)C(c2ccccc2)c2ccccc2)cc1 | -29.3%
10 | O=C(CC1OC(=O)c2ccccc21)NNC(=O)c1ccc(F)cc1 (centres unmarked) | -25.1%
11 | Cc1cccc(OS(=O)(=O)NC(=O)OCC2CCCN3CCCCC23)c1 (centres unmarked) | 15.1%
12 | CN1CCN(c2nc(N)cc(=O)[nH]2)CC1 | 15.2%
13 | COC(=O)CC(=O)CSc1nc(C)cc(C)c1C#N | 22.9%
14 | COc1ccc([N+](=O)[O-])cc1NC(=O)Cc1ccccc1Cl | 5.67%
15 | CC1CCN(S(=O)(=O)c2cccc(C(=O)Nc3ccccn3)c2)CC1 | -22.1%
16 | CCOc1ccc2[nH]c(=O)c(CN(Cc3cccnc3)C(=O)Nc3ccccc3OC)cc2c1 | -6.63%
17 | COc1cccc(N(CC(=O)Nc2cccc(C(C)=O)c2)S(C)(=O)=O)c1 | -5.01%
18 | C=CCn1c(COc2ccc(CC)cc2)nnc1SC/C(O)=C(\C#N)c1nc2ccccc2[nH]1 | 2.23%
19 | CCOc1ccc(S(=O)(=O)N(CC)CC(=O)N2CCCC2)cc1C | -6.28%
20 | O=C(c1ccc2oc(CCCc3ccccc3)nc2c1)N1CCCC(CCCO)C1 (centres unmarked) | -32.2%
21 | O=C(C1CCN(S(=O)(=O)c2ccc(Br)s2)CC1)N1CCN(c2ccccc2)CC1 | -10.5%
22 | CCCCCC(=O)N1CCCCC1 | 4.42%

Row | SMILES | hERG current change (%, negative = inhibition) at 10uM
23 | COc1ccc(NC(=O)C2CCCN(S(C)(=O)=O)C2)c(OC)c1 (centres unmarked) | 18.3%
24 | CCN(CC)CCCN1C(=O)C(O)=C(C(=O)c2sc(C)nc2C)C1c1ccco1 (centres unmarked) | -0.605%
25 | COc1ccccc1OCCNC(=O)c1ccc(C)c(S(=O)(=O)N2CCOCC2)c1 | -16.6%
26 | Cc1ccc2c(CNCc3ccccc3)cc(=O)oc2c1 | 0.879%
27 | CC(=O)c1c(C)nc2ccc(C)cc2c1-c1ccccc1 | -9.78%
28 | COc1ccc(-n2c(CCc3ccccc3)nnc2SCC(=O)NCc2ccccc2)cc1 | -47.3%
29 | COc1cc(/C=N/N2CCOCC2)ccc1OC(=O)c1ccco1 | 40%
30 | CC(Nc1nc(N2CCOCC2)nc2ccccc12)c1ccccc1 (centres unmarked) | -73.8%
31 | COc1ccc(C(=O)N2CCN(Cc3ccc(OC)c(OC)c3)CC2)cc1.O=C(O)C(=O)O | 0.702%
32 | O=S(=O)(c1ccc(F)c(F)c1)N1CCN(S(=O)(=O)c2cccs2)CC1 | 1.29%
33 | COc1cccc(NC(=O)c2ccc3nsnc3c2)c1 | 5.78%
34 | NC(=O)NCC(c1ccccc1)C1CCCCC1 (centres unmarked) | 19.5%
35 | O=C(c1ccccc1NS(=O)(=O)c1cccs1)N1CCOCC1 | 15.3%
36 | CCOC(=O)c1ccc(Cn2cnc3ccccc3c2=O)cc1 | -9.65%
37 | Cc1ccnc(NC(c2ccncc2)c2c(C)[nH]c3ccccc23)c1 (centres unmarked) | -7.02%
38 | c1ccc(CCNc2nc3ccccc3n3nnnc23)cc1 | 1.71%
39 | O=C(CN1CCN(c2ccccc2)CC1)Nc1scc2c1c(=O)oc1ccccc12 | 16.1%
40 | CC(C)N(C)C1CCN(C(=O)Nc2ccc(Cl)c(Cl)c2)CC1 | -40.9%
41 | C=CCc1c(OC(C)=O)c2ccccc2n(C)c1=O | -4.29%
42 | COc1ccc(C)cc1N(CC(=O)NCCSCc1ccco1)S(=O)(=O)c1ccc(C)cc1 | -11.3%
43 | Nc1cncc(C(=O)O)c1 [24817409] | 15.7%
44 | COc1cc(OC)c(S(=O)(=O)Nc2ccc(C(=O)O)cc2)cc1S(=O)(=O)Nc1ccc(C(=O)O)cc1 | 10.7%
